# According to paper PMC12136788:
# The other results are listed elsewhere or left out.
# T1: UNK ZnF1-3 (human, UniProt Q9C0B0 31-174)
# T1 sequence: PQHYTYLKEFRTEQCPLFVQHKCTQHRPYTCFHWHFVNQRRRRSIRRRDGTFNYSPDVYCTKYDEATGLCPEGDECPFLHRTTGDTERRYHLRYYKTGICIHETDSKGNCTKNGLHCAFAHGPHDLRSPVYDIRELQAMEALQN
# B1: chr5:43656058:43656059:+_ENSG00000112992_ENST00000512996|hu_hu|motif|central (ssRNA)
# RNA: GGGAGUUCUACAGUCCGACGAUCGUAGGCCACAAUCUUGGUGAGAUUUGCUGCUGCAUCCGUAGCAAAAUGUGGAUAUUCGGUAAUGUACUCAGCUAUGCAAGUAAGUACAGCUGCCAAACCCACUAAACUGUGAAAAGCAGCCAACAGAGGAUUGAGCAUCA
# B2: chr12:2981354:2981355:-_ENSG00000111206_ENST00000359843|hu_hu|motif|central (ssRNA)
# RNA: GGGAGUUCUACAGUCCGACGAUCGCGGGAGCCCAGUCCAUCAGAACUCAUCUUUCGAAGCCACUGGAUGUUGGAUAGGCGGUUGUUGAUAGUGCAGCCUGCUGCCUCACCAUCUGCACAGGUCUCCCGUUUCUGCUCGCAAAGCAACAGAGGAUUGAGCAUCA
# B3: 107696830_107697939_2073_CDS_ENSMUSG00000019907_ENSMUST00000070663|mouse|control|control (ssRNA)
# RNA: GGGAGUUCUACAGUCCGACGAUCUCUUCCUAUUGUUUUUUCAGCUUCCUGAAGAUCAGUCAGUGUUACCCCCUGUGUUGACCGUCUAGACUGUCUUGCUUGUCUAGAUCUUGCUUUUCUUUGGGAUUCAGACUCUUCGUCCCUCAACAGAGGAUUGAGCAUCA
# B4: chr18:67943652:67943653:+_ENSMUSG00000079614_ENSMUST00000025421|mus_mus|FALSE|FALSE (ssRNA)
# RNA: GGGAGUUCUACAGUCCGACGAUCAGUUGUCCUCUUCACCCAGUGACUCUGUCCUCGAAGUUUAUCGUUUGAUUCUCCCACUAUUUCUUCCCAUACAGCUGCUGUUCGGUCAAAAGAACAGGAAGCCAAAACUUGUCCAAAUUCCAACAGAGGAUUGAGCAUCA
# B5: chr3:90056536:90056537:+_ENSMUSG00000052310_ENSMUST00000015467|mus_mus|FALSE|FALSE (ssRNA)
# RNA: GGGAGUUCUACAGUCCGACGAUCCAGCUUGUCUCUGAGAUGUACUGCCUGGCCUCUGACUGUAGCAGUCUGCCUCCUUCUAAUGUCCCUGACCACGUCUGUAGUAACUUCGCUAUCUCUUAUUCUUUGGGUCUGGGGCUAGCCCAACAGAGGAUUGAGCAUCA
# B6: chr2:29016751:29016752:+_ENSG00000213639_ENST00000296122|perfect_dup|FALSE|FALSE (ssRNA)
# RNA: GGGAGUUCUACAGUCCGACGAUCUUUAGCAAAAAAUUCAUAUCCAUCUUCCACCACCUGAUGAGCUCGACAAAUCAAAUCUAAAUCAUGACGAUUCAGAAAUUUACUGACUACAUCAGCUCCAAAAGUAAAGGAAACACCACGCAACAGAGGAUUGAGCAUCA
# B7: chrX:17831648:17831649:+_ENSMUSG00000037369_ENSMUST00000044484|mus_mus|FALSE|FALSE (ssRNA)
# RNA: GGGAGUUCUACAGUCCGACGAUCAGUGGACUUAGGAGAAGGUGUUGCUGUGGAAAUGGCUGAAGAUGGUGAAGAGGCAACAGAAUUAUCAGUCUUUGUAUGGACAGUUGGGUGGAUGUUAUUGACUUUGUCACAGGUUCCAGGCAACAGAGGAUUGAGCAUCA
# B8: chr1:150204246:150204247:-_ENSG00000143401_ENST00000314136|hu_mus|motif|central (ssRNA)
# RNA: GGGAGUUCUACAGUCCGACGAUCAAAGGUGUCAUUCAGGCCUUCGAUUUCCCCAUUGACACACAAGCAAUUAUCGAGGACGGACUCUGUCACCUCCUCCGGGGCUCUGUUCUUCAACUCCAUGUUAAUCUUCUUCUUCAUCUCCAACAGAGGAUUGAGCAUCA
# B9: chr1:225611761:225611762:-_ENSG00000143815_ENST00000272163|hu_mus|hu_hu_hu_mus_True|28_98 (ssRNA)
# RNA: GGGAGUUCUACAGUCCGACGAUCCCAGGCCAUCGGCCUCUUACCACUUCACCCUCAACAAACUUCCUACUUGGCAUUUUCUAAAAUUAGUCUGGCCGCGCUCCGGCCGGUGACACGGCCACUCCAGGACAGUCACCAGCAGCCCAACAGAGGAUUGAGCAUCA
# B10: chr7:138189096:138189097:+_ENSG00000122779_ENST00000415680|hu_mus|motif|central (ssRNA)
# RNA: GGGAGUUCUACAGUCCGACGAUCAGACUUUUCUACUGUACUACUAGGAACUUCAGUGGUGUCCUUCACAAAAAAGUUGUCGGUGAUGUGUCUCUCAGCACACUCUUGACUGCAAACUGGGCAUCGAAUGACUCCAACUUGGGUCAACAGAGGAUUGAGCAUCA
# B11: chr4:109034340:109034341:+_ENSMUSG00000028552_ENSMUST00000102729|mus_hu|motif|central (ssRNA)
# RNA: GGGAGUUCUACAGUCCGACGAUCCUCUUCUCUAGCUUUUGCCAAUUCUUCUUCGUAAGUGGAGAUCUGCGAUUCCUGACGGGUUAAUUCAGCUUUCAGAGAAGAGAUCAGUUGGGCCUCCUCAGCACAUUUCUUUCUGACUUCCAACAGAGGAUUGAGCAUCA
# B12: chr2:62103298:62103299:-_ENSG00000115484_ENST00000544079|hu_mus|FALSE|FALSE (ssRNA)
# RNA: GGGAGUUCUACAGUCCGACGAUCCAGGAUAGACUUCUGUAUGAGAAGGACAUUACAUCCUGUUUUCUUAAUUUGCUUCACCAAAUUUAAAAUAUAGGCUCUCUCCUCUCGAAGCACUCGAUCCAUCUGGGCAUAGUCAGAUACCAACAGAGGAUUGAGCAUCA
# B13: chr22:19452774:19452775:-_ENSG00000070010_ENST00000399523|hu_hu|hu_hu_hu_mus_False|8_98 (ssRNA)
# RNA: GGGAGUUCUACAGUCCGACGAUCCUUCUCAUUGUAGUUGAUGGCAAUCACAUCUCCAGUCGUCAGACAGGCGAAGUUUCUCAAUGCAUUUUCUAAUACCGCUUUAGGGUUGGUAAUAUCCAGGAAGUCAGGGCUCUGAGGCUGCAACAGAGGAUUGAGCAUCA
# B14: chr9:14812383:14812384:-_ENSMUSG00000031934_ENSMUST00000164273|mus_mus|mus_mus_mus_hu_True|1_88 (ssRNA)
# RNA: GGGAGUUCUACAGUCCGACGAUCAUAGCCCAGGUAGAUACACGCUAACAGUAUAACGAUGAGUGUCAGCAGGCGGCAGCUAAUGUACUUGAUGAUUAAAUUAUUAGAAUUUUUCUUUGUCUUCAAGUACUGCUCCACGAUUGGCAACAGAGGAUUGAGCAUCA
# B15: 42628803_42628923_1299_3pUTR_ENSMUSG00000036667_ENSMUST00000045054|mouse|control|control (ssRNA)
# RNA: GGGAGUUCUACAGUCCGACGAUCAUAGGUCCUUGUUCCUAUUUUAGGGGUACGGAAAGGUCCUGGAUUGAGACUCUGGCUUGUGAUGCUGAUACCAAAGGCAUUGAGGAGCAGGUUUCCUGGGAAUCGAGCCAGAGGGGACACCAACAGAGGAUUGAGCAUCA
# B16: chr7:7679991:7679992:-_ENSG00000106399_ENST00000396682|hu_hu|hu_hu_hu_mus_False|58_88 (ssRNA)
# RNA: GGGAGUUCUACAGUCCGACGAUCUGGGAUGAAUCUUUUCCAGCUUCCCUACGAAGCACACGGGCCGGUCGAUAUACUGAGCUAGCAUGCUGGCGUUGACGCGCGCUUUGGGGAGCUGCAUUAUGUCCUCCAUGAUUCUGCCGCCAACAGAGGAUUGAGCAUCA
# B17: 4756694_4756814_1462_3pUTR_ENSMUSG00000044674_ENSMUST00000054294|mouse|control|control (ssRNA)
# RNA: GGGAGUUCUACAGUCCGACGAUCCGCAGGGUGCGCCGCAGUCCUUCUCCCCCAGAAAGUGGUAGUUGAGGUAGGAGGGCACCCUGAGGGCGCGCGGGCAGGAGAACUUUCCCCGCUCCACCGUCCCGGCACCCCCCGGGUAGCCAACAGAGGAUUGAGCAUCA
# B18: 15289965_15290085_3604_CDS_ENSG00000074181_ENST00000263388|human|control|control (ssRNA)
# RNA: GGGAGUUCUACAGUCCGACGAUCUCCUGGGGGACAGGUGCAGCGGAAACCACCCACCAGGUCCACGCAGGUGCCAUUGUGUAGGCACCGGGGCCCUGAGUCCAGCGGUGGGCCUGGGCCGCAGUCAUCCUCAUUAAUCUCGCACAACAGAGGAUUGAGCAUCA
# B19: chr13:100200574:100200575:-_ENSMUSG00000052727_ENSMUST00000064762|mus_hu|FALSE|FALSE (ssRNA)
# RNA: GGGAGUUCUACAGUCCGACGAUCAUAAUCUUCUUCAUCUGGGGACCUGGUUGUUUCCUCAGGCUUUUGAUAGGCAUAGCUAAAGUCACCAGGUGUCUUCCCUCCACUGUCCUUCUCCAGGCCAGGUGUGGACAAAUCUCUAUUCAACAGAGGAUUGAGCAUCA
# B20: 37431128_37434536_1627_3pUTR_ENSMUSG00000026113_ENSMUST00000027287|mouse|control|control (ssRNA)
# RNA: GGGAGUUCUACAGUCCGACGAUCCGUUCCGCGUAGUAGCUGACCUGGGUUUUUAGGGUGUUGAUCUGGGCAAUGAUCUCCUUGGCUCGGGUGAUGUCCUGUGGUAUGUAGAUGAUGGACUGGCCACUAGAAGAUGUACAACACCAACAGAGGAUUGAGCAUCA
# B21: 138256096_138289186_685_CDS_ENSG00000114107_ENST00000484888|human|control|control (ssRNA)
# RNA: GGGAGUUCUACAGUCCGACGAUCUUCCUCCUUUUUUAAUCUACAGACUUCCAUUUGCAAAGAAGCAAUAGUUUCUUCUUGCUCCGUUCGUUUUUUCUUAUAAUGCUGGCACUUCACCUGUAAAGUUUUCUGCUCCUUUUGAAGCAACAGAGGAUUGAGCAUCA
# B22: 77617946_77618066_2131_CDS_ENSG00000091656_ENST00000521891|human|control|control (ssRNA)
# RNA: GGGAGUUCUACAGUCCGACGAUCGUCUCCCCGGGCUAUUUCACUUGGAUGAGCAGCUGUGGCACUGUCUUUACUGGCACUUGCGUCUGCAAAGUCCUUGCCACUGAUGCCAUAGUUACUAGCAACACUGCCACUGGCCCUAACCAACAGAGGAUUGAGCAUCA
# Target: T1, UNK ZnF1-3
# Assay: nsRBNS (natural sequence RNA bind-n-seq); RBNS binding buffer (assumed for nsRBNS): 25 mM Tris pH 7.5, 150 mM KCl, 3 mM MgCl2, 0.01% Triton X-100, 500 ug/ml BSA, 20 U/ml SUPERase-In, 4 C; UNK is unkempt and MSI1 is Musashi-1; names of the RNAs are library labels; protein concentration not given here; high values mean tight binding
row,Binder,binding signal
1,B1,0.53 enrichment R
2,B2,0.731 enrichment R
3,B3,0.251 enrichment R
4,B4,1.03 enrichment R
5,B5,0.564 enrichment R
6,B6,1.25 enrichment R
7,B7,1.63 enrichment R
8,B8,0.605 enrichment R
9,B9,1.19 enrichment R
10,B10,0.869 enrichment R
11,B11,0.566 enrichment R
12,B12,0.902 enrichment R
13,B13,0.971 enrichment R
14,B14,1.27 enrichment R
15,B15,1.57 enrichment R
16,B16,0.553 enrichment R
17,B17,0.533 enrichment R
18,B18,0.618 enrichment R
19,B19,0.517 enrichment R
20,B20,0.828 enrichment R
21,B21,0.549 enrichment R
22,B22,0.997 enrichment R
